# Out of some 350,000 compounds screened, about 31,000 (8.9%) were called active. This list was built around the results that the source calls inconclusive (neither active nor inactive); the mix of calls is not that of the screen. The call rests on the fitted dose curve; in most records, active means well fitted inhibition curve with a large enough effect; inconclusive means small, poorly fitted or top-dose-only effect; inactive means no such curve, though single readings can be large or run the other way. Potencies beside an inconclusive call are fits to weak or partial responses and may not hold up.
# Biological target: Histone-lysine N-methyltransferase EHMT2 (Homo sapiens) (UniProt Q96KQ7)
# Chain of UniProt Q96KQ7 (Q96KQ7 whole entry, looked up): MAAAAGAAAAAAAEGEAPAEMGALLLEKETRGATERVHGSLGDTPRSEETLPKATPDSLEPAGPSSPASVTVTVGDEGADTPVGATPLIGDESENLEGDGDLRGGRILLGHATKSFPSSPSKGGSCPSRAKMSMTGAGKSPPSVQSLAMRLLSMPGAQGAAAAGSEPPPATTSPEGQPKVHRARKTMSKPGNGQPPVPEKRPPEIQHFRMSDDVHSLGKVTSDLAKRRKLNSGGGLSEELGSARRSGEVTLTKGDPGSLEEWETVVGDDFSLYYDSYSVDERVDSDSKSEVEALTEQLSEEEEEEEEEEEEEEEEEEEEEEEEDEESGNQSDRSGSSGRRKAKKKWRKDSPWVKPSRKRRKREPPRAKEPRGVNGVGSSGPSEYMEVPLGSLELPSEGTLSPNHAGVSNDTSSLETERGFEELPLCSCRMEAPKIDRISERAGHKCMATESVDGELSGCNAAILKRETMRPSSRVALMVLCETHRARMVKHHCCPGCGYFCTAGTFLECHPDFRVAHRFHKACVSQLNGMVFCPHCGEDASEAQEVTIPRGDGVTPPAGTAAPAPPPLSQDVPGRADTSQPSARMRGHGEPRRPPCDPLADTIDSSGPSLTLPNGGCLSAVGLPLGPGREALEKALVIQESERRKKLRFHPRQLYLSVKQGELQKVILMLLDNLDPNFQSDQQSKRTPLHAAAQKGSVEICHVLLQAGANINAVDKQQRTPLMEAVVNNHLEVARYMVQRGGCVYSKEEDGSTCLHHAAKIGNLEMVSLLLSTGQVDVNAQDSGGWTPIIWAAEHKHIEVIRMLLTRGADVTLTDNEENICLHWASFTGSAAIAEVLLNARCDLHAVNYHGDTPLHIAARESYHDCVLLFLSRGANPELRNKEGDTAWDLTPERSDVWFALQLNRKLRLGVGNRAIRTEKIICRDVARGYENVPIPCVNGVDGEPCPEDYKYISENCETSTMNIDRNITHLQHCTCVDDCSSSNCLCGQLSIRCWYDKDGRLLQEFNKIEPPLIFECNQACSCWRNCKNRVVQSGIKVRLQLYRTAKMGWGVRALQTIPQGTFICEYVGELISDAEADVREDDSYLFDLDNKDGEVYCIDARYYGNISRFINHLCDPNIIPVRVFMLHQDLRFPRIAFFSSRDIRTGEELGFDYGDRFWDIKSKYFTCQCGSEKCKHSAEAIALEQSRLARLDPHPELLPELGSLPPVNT
# Assay: qHTS Assay for Inhibitors of Histone Lysine Methyltransferase G9a; further: nearly all actives have a fitted effect of over 75% in size
# Settings: G9a H3K9 monomethylation, AlphaScreen, 2 h; activity, negative = inhibition: at 59 µM (top of the series) unless noted
# Procedure, shortened: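 G9a (20 nM) preincubated 15 min RT with compounds, then 500 nM biotinylated H3K9 peptide and 20 uM SAM added; 2 h RT reaction. Monomethyl-H3K9 product detected by AlphaScreen with anti-H3K9me1 antibody, streptavidin donor and anti-rabbit IgG acceptor beads.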
# On the % scale 0 is the no-effect control and ±100 the full control effect; potency means the concentration at half of the fitted maximal effect; tags describe the fitted curve by direction and shape.
Compound,Potency,"activity, negative = inhibition"
Cc1ccc(SC2CC(=O)N(c3ccc4c(c3)OCCO4)C2=O)cc1 (stereo unspecified),"inconclusive: 11.2 µM [inhibitor, full curve, poor fit]",
COC(=O)NNC(=O)COc1ccc2ccccc2c1Br,"inconclusive: 31.6 µM [inhibitor, single point]",
CNC(=O)C1CC(=O)N(c2ccc(OCC(=O)Nc3ccccc3C)cc2)C1 (stereo unspecified),inactive,
COc1ccc(NC(=S)NCCc2ccc(Cl)cc2)c(OC)c1,inactive,
CCN1C(=O)C(O)(CC(=O)c2cc(C)ccc2C)c2ccccc21 (stereo unspecified),,inactive: -18.9% [at 2.33 µM]
Cc1ccc(/C=N\NC(=O)C2CC(=O)N(c3ccccc3)C2)o1 (stereo unspecified),"inconclusive: 56.2 µM [inhibitor, partial curve]",
Cc1ccc(NS(=O)(=O)c2ccc(Cl)c(C(=O)Nc3ccccc3-c3nc4ccccc4[nH]3)c2)cc1C,inactive,
COc1ccc(OC)c(/C(C)=N\NC(=O)c2cc3cc(Cl)ccc3n2C)c1,"inconclusive: 70.8 µM [inhibitor, partial curve]",
O=C(Nc1ccc(CN2CCOCC2)cc1)c1ccc(N2CCCC2)c([N+](=O)[O-])c1,"inconclusive: 50.1 µM [inhibitor, partial curve, poor fit]",
N#CCC(=N)N1CCN(c2ccc(F)cc2)CC1,inactive,
Cc1nc2sc3c(c2c(=O)n1NC(=O)CCBr)CCCC3,active: 50.1 µM,
CCOc1ccc(-c2nnc(SCc3nc4ccccc4[nH]3)n2N)cc1,"inconclusive: 12.6 µM [inhibitor, full curve, poor fit]",
COc1ccc(N2CCN(C(=O)c3ccc4[nH]c(C)c(C)c4c3)CC2)cc1,,inactive: 17.7% [at 12.7 µM]
COc1ccc(CNCc2cc(OC)ccc2OC)cc1,active: 12.6 µM,
O=C(CNCC1CCCCC1)Nc1ccc(OC(F)(F)F)cc1,active: 8.91 µM,
Cc1ccc(NC(=O)C(c2ccccc2)N2CCN(CC(=O)N3CCOCC3)CC2)cc1Cl (stereo unspecified),"inconclusive: 22.4 µM [inhibitor, single point]",
CC(C)N(C(=O)COC(=O)[C@@H]1CC(O)CN1S(=O)(=O)c1ccccc1[N+](=O)[O-])C(C)C (stereo partly specified),inactive,
O=S(=O)(Nc1cccc(C(F)(F)F)c1)c1cccnc1,,inactive: -10.3% [at 12.7 µM]
CCc1ccc(OCc2nnc(SCC(=O)NCc3ccco3)o2)cc1,"inconclusive: 79.4 µM [inhibitor, single point]",
COCCCNC(=O)CCc1c(C)nc2nc(-c3cc(OC)cc(OC)c3)nn2c1C,inactive,
COc1ccc(C(=O)Cc2ccc(OC)c(OC)c2)c(OC)c1,"inconclusive: 39.8 µM [inhibitor, single point]",
CCCCC(=O)Nc1ccc(N2CCN(C(=O)c3ccco3)CC2)cc1,"inconclusive: 15.8 µM [inhibitor, partial curve, poor fit]",
CCCS(=O)(=O)N1CC(=O)N(c2cccc(Cl)c2C)C(C)(C(=O)NC2CCCC2)C1 (stereo unspecified),inactive,
CCOC(=O)c1sc(NC(=O)CSc2nc(C)cc(C(F)(F)F)n2)c(C#N)c1C,active: 11.2 µM,

Compound,Potency,"activity, negative = inhibition"
O=C(NCc1ccco1)c1csc(Nc2ccccc2Cl)n1,active: 31.6 µM,
Cc1ccc(-c2csc3nc4c5ccccc5c(NCCCN(C)C)nn4c(=O)c23)cc1,active: 35.5 µM,
O=C(COC(=O)C1CCN(S(=O)(=O)c2ccc3c(c2)OCCO3)CC1)NC1CCS(=O)(=O)C1 (stereo unspecified),"inconclusive: 79.4 µM [inhibitor, single point]",
COc1ccc(-n2c(C)c(C(C)=O)c3cc(OC(=O)COc4ccccc4)ccc32)cc1,"inconclusive: 3.55 µM [inhibitor, partial curve, poor fit]",
Cc1nnc(NC(=O)CSc2nnc(Cc3cccn3C)n2C)s1,"inconclusive: 39.8 µM [inhibitor, single point]",
O=C(O)c1c(C(=O)O)c(-c2ccc(Cl)c(Cl)c2)n2c1CSC2,active: 44.7 µM,
CN(C)c1ncnc2ccc(-c3cccc(C#N)c3)cc12,,inactive: -7.54% [at 0.501 µM]
CN(Cc1ccc(Cl)cc1Cl)C(=O)CN1C(=O)NC2(CCCC2)C1=O,active: 35.5 µM,
CCC(Oc1ccccc1)C(=O)Nc1cc(-c2cccc(C)c2)nn1-c1ccccc1 (stereo unspecified),inactive,
COCCNc1ccc(N2C(=O)C3CCCCC3C2=O)cc1[N+](=O)[O-] (stereo unspecified),"inconclusive: 39.8 µM [inhibitor, partial curve, poor fit]",
CSCCC(NS(=O)(=O)c1ccccc1F)C(=O)NCc1ccncc1 (stereo unspecified),inactive,
O=C1NC(=O)/C(=C/c2ccccc2OCc2ccccc2)S1,active: 39.8 µM,
Cc1ccc(CNC(=O)Cc2c(C)c3c(cc(C)c4c(C)coc43)oc2=O)cc1,"inconclusive: 7.08 µM [inhibitor, partial curve, poor fit]",
COc1cccc(CNC(=O)Cn2ncn3nc(-c4cccs4)cc3c2=O)c1OC,"inconclusive: 12.6 µM [inhibitor, partial curve, poor fit]",
O=C(c1ccc(-c2cccc(Cl)c2Cl)o1)N1CCOCC1,active: 39.8 µM,
COc1ccc(-n2nc(C(=O)N3CCN(c4cccc(C)c4C)CC3)c3c4ccccc4n(C)c3c2=O)cc1Cl,inactive,
COc1ccc2c(c1)C(=O)[C@@H](O)[C@H](c1ccc(OC)c(Br)c1)O2,inactive,
C=CCn1c(SCc2nc3sc(C(=O)O)c(C)c3c(=O)[nH]2)nnc1-c1ccc(F)cc1,,inactive: 26.9% [at 12.7 µM]
COc1ccc(S(=O)(=O)N2CCC(C(=O)NCCC3=CCCCC3)CC2)cc1OC,"inconclusive: 79.4 µM [inhibitor, partial curve, poor fit]",
CCCCn1c(N)c(N(CCOC)C(=O)C2CCN(S(=O)(=O)c3ccc(C)c(C)c3)CC2)c(=O)[nH]c1=O,active: 50.1 µM,
Cc1ccc2onc(CC(=O)N3CCN(c4cc(Cl)ccc4C)CC3)c2c1,"inconclusive: 8.91 µM [inhibitor, partial curve, poor fit]",
COc1ccc(/C=C/C(=O)NC(=S)Nc2ccc(C(=O)O)cc2)cc1,"inconclusive: 7.08 µM [inhibitor, full curve, poor fit]",
CC(C)(CNC(=O)Cc1ccc(Cl)cc1Cl)N1CCOCC1,"inconclusive: 0.282 µM [inhibitor, partial curve, poor fit]",
CCOc1ccc(N2C(=O)CC(NCC3CCCO3)C2=O)cc1 (stereo unspecified),"inconclusive: 44.7 µM [inhibitor, partial curve, poor fit]",

Compound,Potency,"activity, negative = inhibition"
O=C(CCCl)Nc1nnc(SCC(=O)NC2CCCC2)s1,"inconclusive: 79.4 µM [inhibitor, partial curve, poor fit]",
Fc1ccc(-c2nn(-c3ccccc3Cl)c3c2cnc2ccccc23)cc1,inactive,
CCOC(=O)c1c(N)sc2c1CCC1C(=O)N(C3CCCCC3)C(=O)C21 (stereo unspecified),"inconclusive: 3.16 µM [inhibitor, partial curve, poor fit]",
CCOc1cccc(CNCc2cccnc2)c1OCc1ccccc1,"inconclusive: 17.8 µM [inhibitor, partial curve, poor fit]",
CCOCCCNC(=O)C(NC(=O)c1ccccc1O)c1ccc(C)cc1 (stereo unspecified),active: 5.62 µM,
COc1ccccc1CNC(=O)N/C=C/c1ccc(Cl)cc1,active: 31.6 µM,
CC1(C)Cc2c(sc(NC(=O)COc3ccc(Cl)cc3)c2C#N)C(C)(C)N1,"inconclusive: 89.1 µM [inhibitor, partial curve, poor fit]",
CCOC(=O)CCc1c(C)c2ccc(OC(C)C(=O)OCC)c(C)c2oc1=O (stereo unspecified),inactive,
COc1ccc(OC)c(C(=O)COC(=O)c2ccc(C)o2)c1,"inconclusive: 11.2 µM [inhibitor, partial curve]",
COc1ccc(CNC(=O)c2nc(SCc3ccccc3F)ncc2Cl)cc1,inactive,
COc1ccccc1Cn1c(CNS(=O)(=O)c2ccc(C(C)C)cc2)nc2cccnc21,inactive,
COc1ccc2nc(SCC(=O)c3c(N)n(C4CC4)c(=O)[nH]c3=O)[nH]c2c1,active: 7.08 µM,
Cc1ccc(Cl)cc1NC(=O)COC(=O)CN1C(=O)C2CCCCC2C1=O (stereo unspecified),"inconclusive: 35.5 µM [inhibitor, single point]",
Cc1cccc(-n2nc(C(=O)c3ccco3)cc(-c3nc4ccccc4[nH]3)c2=N)c1,inactive,
COc1ccc(NC(=O)COC(=O)Cn2nnc3ccccc32)cc1,inactive,
COC(=O)C1=C(C(=O)OC)[C@@H]2N(C)c3ccc(OC)cc3[C@@]23C[C@@H](C(=O)OC)N(S(=O)(=O)c2ccc([N+](=O)[O-])cc2)C3=N1,"inconclusive: 3.55 µM [inhibitor, single point]",
CC(C)c1ccc(NC(=O)NC2CCCCC2)cc1,inactive,
Cc1cnc(C(=O)OCC(=O)NC(=O)NC(C)C)cn1,"inconclusive: 89.1 µM [inhibitor, partial curve, poor fit]",
CCC(=O)c1ccccc1OCCCCn1cncn1,active: 8.91 µM,
CCN(CC(=O)Nc1ccc(OC)c(Cl)c1)CC(=O)NC(C)C,"inconclusive: 39.8 µM [inhibitor, partial curve, poor fit]",
CC1(C)Cc2c(c(-c3ccco3)nc3sc4c(NCCO)ncnc4c23)CO1,"inconclusive: 89.1 µM [inhibitor, single point]",
COC(CNC(=O)c1ccc2c(c1)ncn2C1CCCCCC1)OC,,inactive: -28.4% [at 2.33 µM]
CCOC(=O)/C=C/c1cnn(-c2ccccc2)c1,"inconclusive: 31.6 µM [inhibitor, partial curve, poor fit]",

# Source: PubChem BioAssay AID504332 (National Center for Advancing Translational Sciences (NCATS), 2011)
